Measured values published in article PMC4336329 (PLoS ONE, 2015).
Among all 310,000 compounds or so, about 14,000 (4.5%) showed an effect of 50% or more. Effects have a minus sign here. The list shows a part of the results.

biological target: human ether-à-go-go-related gene (hERG) potassium channel (human, UniProt Q12809); test: primary screen, population patch clamp on CHO cells stably expressing hERG
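Note: peak tail current of the secondary pulse compared with the same well before compound.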

Chain of human ether-à-go-go-related gene (hERG) potassium channel (Q12809 whole entry, looked up): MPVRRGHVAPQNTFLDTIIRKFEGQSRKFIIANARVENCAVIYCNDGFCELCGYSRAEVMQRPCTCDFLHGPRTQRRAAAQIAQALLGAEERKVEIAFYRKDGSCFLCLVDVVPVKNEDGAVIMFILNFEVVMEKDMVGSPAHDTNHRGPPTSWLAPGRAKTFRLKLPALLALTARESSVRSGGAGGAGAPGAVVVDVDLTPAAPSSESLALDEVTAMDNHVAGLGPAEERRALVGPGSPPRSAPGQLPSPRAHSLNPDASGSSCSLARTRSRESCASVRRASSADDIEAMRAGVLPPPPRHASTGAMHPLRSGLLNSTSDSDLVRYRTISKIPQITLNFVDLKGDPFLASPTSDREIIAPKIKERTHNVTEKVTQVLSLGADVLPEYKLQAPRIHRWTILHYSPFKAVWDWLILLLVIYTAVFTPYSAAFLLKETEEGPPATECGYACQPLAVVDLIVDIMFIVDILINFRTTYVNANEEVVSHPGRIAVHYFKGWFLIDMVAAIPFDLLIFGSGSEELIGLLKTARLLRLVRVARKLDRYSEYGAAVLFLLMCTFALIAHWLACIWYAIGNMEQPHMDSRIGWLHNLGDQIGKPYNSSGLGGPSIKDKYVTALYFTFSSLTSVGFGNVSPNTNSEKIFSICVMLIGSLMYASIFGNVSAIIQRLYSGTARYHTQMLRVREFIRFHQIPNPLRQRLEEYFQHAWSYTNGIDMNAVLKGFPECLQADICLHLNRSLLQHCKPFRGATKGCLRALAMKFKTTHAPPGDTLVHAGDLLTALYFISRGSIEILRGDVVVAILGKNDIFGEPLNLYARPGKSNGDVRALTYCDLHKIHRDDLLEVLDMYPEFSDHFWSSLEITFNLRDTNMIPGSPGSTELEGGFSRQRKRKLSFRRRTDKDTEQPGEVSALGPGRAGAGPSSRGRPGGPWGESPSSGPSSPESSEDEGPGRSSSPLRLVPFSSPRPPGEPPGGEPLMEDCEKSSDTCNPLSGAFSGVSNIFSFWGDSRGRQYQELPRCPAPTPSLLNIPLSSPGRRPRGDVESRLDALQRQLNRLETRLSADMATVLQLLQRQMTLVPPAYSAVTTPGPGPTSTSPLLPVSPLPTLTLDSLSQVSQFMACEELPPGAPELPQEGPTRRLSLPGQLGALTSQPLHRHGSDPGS

SMILES	hERG current change (%, negative = inhibition) at 10uM [%]
O=C(NNC(=O)c1ccccc1Br)c1ccc2nc[nH]c2c1	10.7
Cc1cc(O)c(C(=O)/C=C/c2cccc([N+](=O)[O-])c2)c(=O)o1	2.81
CCCCn1c(N(CCOC(C)=O)C(C)=O)nc2ccccc21	-5.88
COc1ccc(CCNC(=O)CCNS(=O)(=O)c2cccc(Cl)c2)cc1OC	5.73
COc1ccccc1NC(=O)Nc1nnc(Cc2ccc(F)cc2)s1	16
CCCNC(=O)N1CCN(c2nc(C(C)C)c3c(c2C#N)CC(C)(C)OC3)CC1	4.84
Cc1ccc(/C(O)=C2/C(=O)C(=O)N(c3ccccn3)C2c2ccc(F)cc2)cc1 (stereo not drawn)	9.62
CO[C@@H]1[C@@H](O[C@@H]2O[C@H](C)[C@@H](O[C@H]3C[C@@](C)(OC(=O)CC(C)C)[C@@H](O)[C@H](C)O3)[C@H](N(C)C)[C@H]2O)[C@@H](CC=O)C[C@@H](C)[C@@H](O)C=CC=CC[C@@H](C)OC(=O)C[C@H]1OC(C)=O	-6.51
CCCCOC(=O)c1ccc(NC(=O)c2ccc(F)cc2F)cc1	11.9
CCNc1ccc(C(=O)OCC(=O)NC(=O)NCC(C)C)cc1[N+](=O)[O-]	10.5
Cc1ccc(-n2c(Cc3noc4ccccc34)n[nH]c2=S)cc1	8.59
CCCCOc1ccc(N2C(=O)CC(N(CCc3ccccc3)C(=O)/C=C/C(=O)O)C2=O)cc1 (stereo not drawn)	19.3
CC(=O)Nc1ccc(S(=O)(=O)NC2CCCCCC2)cc1	18.3
Cc1cc(C)n(-c2ccc(C(=O)NC(C)C)cc2)n1	-12.1
CCCCOc1cccc(C(=O)Nc2ccccc2N2CCCC2)c1	5.59
Cc1ccc(NC(=O)CSc2nnc(CNC(=O)c3ccco3)o2)cc1	15.6
CC(NC(=O)Nc1ccc(F)cc1)c1ccc2c(c1)OCO2 (stereo not drawn)	15.5
Cc1ccc(NC(=O)c2noc3c2CC(C(C)(C)C)CC3)cc1 (stereo not drawn)	13.2
C[n+]1cn(/N=C/c2ccccc2)c2ccccc21.[I-]	-11.2
Cc1ccc(N=c2c([N+](=O)[O-])nn(-c3ccc(Cl)cc3)n2O)cc1C	0.875
O=S(=O)(/C=C/c1cccc(Br)c1)N1CCOCC1	-6.85
CC1(C)Cc2c(cnn2-c2ccccc2)C(NC(=O)CCCn2cncn2)C1 (stereo not drawn)	-1.88
O=c1c2c([N+](=O)[O-])cc([N+](=O)[O-])cc2sn1-c1ccc(Br)cc1	20.3

SMILES	hERG current change (%, negative = inhibition) at 10uM [%]
COC(=O)Cn1c2ccc(OC)cc2c2nc(C)sc21	3.32
COc1ccc(NC(=O)Nc2nccs2)cc1	-6.52
O=C(NC1CCCCC1)c1ccc(S(=O)(=O)N2CCCC2)cc1	1.57
CC(C)CC(c1nnnn1C1CCCC1)N1CCC(C(N)=O)CC1 (stereo not drawn)	15
Cc1c(/C=N\NC(=O)C2COc3ccc(C(C)(C)C)cc3O2)c2ccccc2n1C (stereo not drawn)	14
C/C(=N\NC(=O)C1CC1)c1cccc(NC(=O)c2cccc(Cl)c2)c1	13.1
CC(=O)NC12CC3CC(C1)CC(C(=O)N(C)CC(=O)Nc1ccccc1Cl)(C3)C2	-9.59
O=C(Nc1ccccc1)NC1CC2CCC(C1)N2Cc1nnnn1Cc1ccc2c(c1)OCO2 (stereo not drawn)	-13.5
O=c1c2ccccc2nc(-c2ccco2)n1-c1nc2ccccc2s1	6
Cc1ccccc1-c1ocnc1C(=O)Nc1ccccc1NC(=O)c1ccccn1	16.3
COc1ccc(CN2C(=O)CSC2c2ccncc2)cc1 (stereo not drawn)	6.21
Cc1ccc(S(=O)(=O)N2CCOC2CNC(=O)C(=O)NCc2ccco2)cc1 (stereo not drawn)	-8.26
O=C(CSc1nc(=O)n(CCN2CCOCC2)c2c1CCCC2)Nc1ccc(F)cc1F	-35.6
CCn1c(CNC(=O)c2cccc(C)c2)nc2ccccc21	-5.38
COc1cc2c(cc1OC)-c1cc(NC3CCCCCCC3)nc(=O)n1CC2	-28.6
O=C1O/C(=C/C(=O)N2CCOCC2)c2ccccc21	9.11
OCCCc1nc2ccccc2n1CCCCOc1ccccc1	-57.2
CN(C)CCCNCCCNC(=O)/C=N/O	10.2
CCN(CC)N=Nc1cccc(NC(C)=O)c1	0.363
Cc1cc(C)c(NC(=O)CS(=O)CC(=O)N2CCN(c3ccc(F)cc3)CC2)c(C)c1 (stereo not drawn)	-14.8
COc1ccc(C2C([N+](=O)[O-])=C(C)N(C)C(=O)N2C)cc1OC (stereo not drawn)	22.7
CCc1ccc(NC(=O)CSc2nc3c(c(=O)n(C)c(=O)n3C)n2C)cc1	-13.1
